{"source": "patent US20210188986A1", "binders": {"B1": {"name": "ISVD construct […] (VHH)", "chain": "DVQLVESGGGVVQPGGSLRLSCAASGRTFSSIYAKGWFRQAPGKEREFVAAISRSGRSTSYADSVKGRFTISRDNSKNTVYLQMNSLRPEDTALYYCAAVGGATTVTASEWDYWGQGTLVTVSSGGGGSGGGSEVQLVESGGGVVQPGGSLRLSCAASGRTFSSIYAKGWFRQAPGKEREFVAAISRSGRSTSYADSVKGRFTISRDNSKNTVYLQMNSLRPEDTALYYCAAVGGATTVTASEWDYWGQGTLVTVSSGGGGSGGGS[about 120 residues skipped]GGGGSGGGSEVQLVESGGGVVQPGGSLRLSCAASGFTFRSFGMSWVRQAPGKGPEWVSSISGSGSDTLYADSVKGRFTISRDNSKNTLYLQMNSLRPEDTALYYCTIGGSLSRSSQGTLVTVSSGGGGSGGGSEVQLVESGGGVVQPGGSLRLS[about 80 residues skipped]RGQGTLVKVSSA"}}, "target": "combination of recombinant human TNFα and recombinant human OX40L", "test": "cell-based or functional assay"}
{"binder": "B1", "values": [{"measurement": "% inhibition, Jurkat OX40/TNF-NFκB reporter assay", "result": 100, "unit": "%"}]}
